{
  "source": "paper PMC9911399",
  "about": "“Two distinct binding modes provide the RNA-binding protein RbFox with extraordinary sequence specificity”",
  "binders": {"B1": {"name": "CAGUGGU (DNA:RNA)", "RNA": "GGGAGACCGGAAUUCAGAUUGUCCCAGUGGUUUAAAUCCCGUCGUAGCCACCA", "DNA 1": "CAATCTGAATTCCGGTCTCCC", "DNA 2": "TGGTGGCTACGACGGGATT"}, "B2": {"name": "AGCUAUG (DNA:RNA)", "RNA": "B1 RNA with C25A, A26G, G27C, G29A, G30U, U31G", "DNA 1": "CAATCTGAATTCCGGTCTCCC", "DNA 2": "TGGTGGCTACGACGGGATT"}, "B3": {"name": "GAACGGC (DNA:RNA)", "RNA": "B1 RNA with C25G, G27A, U28C, U31C", "DNA 1": "CAATCTGAATTCCGGTCTCCC", "DNA 2": "TGGTGGCTACGACGGGATT"}, "B4": {"name": "CGCGACG (DNA:RNA)", "RNA": "B1 RNA with A26G, G27C, U28G, G29A, G30C, U31G", "DNA 1": "CAATCTGAATTCCGGTCTCCC", "DNA 2": "TGGTGGCTACGACGGGATT"}, "B5": {"name": "GGGUGUC (DNA:RNA)", "RNA": "B1 RNA with C25G, A26G, G30U, U31C", "DNA 1": "CAATCTGAATTCCGGTCTCCC", "DNA 2": "TGGTGGCTACGACGGGATT"}, "B6": {"name": "CCAGAUA (DNA:RNA)", "RNA": "B1 RNA with A26C, G27A, U28G, G29A, G30U, U31A", "DNA 1": "CAATCTGAATTCCGGTCTCCC", "DNA 2": "TGGTGGCTACGACGGGATT"}, "B7": {"name": "CACCAUA (DNA:RNA)", "RNA": "B1 RNA with G27C, U28C, G29A, G30U, U31A", "DNA 1": "CAATCTGAATTCCGGTCTCCC", "DNA 2": "TGGTGGCTACGACGGGATT"}, "B8": {"name": "GUAAAUC (DNA:RNA)", "RNA": "GGGAGACCGGAAUUCAGAUUGUCCGUAAAUCUUAAAUCCCGUCGUAGCCACCA", "DNA 1": "CAATCTGAATTCCGGTCTCCC", "DNA 2": "TGGTGGCTACGACGGGATT"}, "B9": {"name": "AGUAGCU (DNA:RNA)", "RNA": "B1 RNA with C25A, A26G, G27U, U28A, G30C", "DNA 1": "CAATCTGAATTCCGGTCTCCC", "DNA 2": "TGGTGGCTACGACGGGATT"}, "B10": {"name": "AUGACGA (DNA:RNA)", "RNA": "B1 RNA with C25A, A26U, U28A, G29C, U31A", "DNA 1": "CAATCTGAATTCCGGTCTCCC", "DNA 2": "TGGTGGCTACGACGGGATT"}, "B11": {"name": "GCCUCCU (DNA:RNA)", "RNA": "B1 RNA with C25G, A26C, G27C, G29C, G30C", "DNA 1": "CAATCTGAATTCCGGTCTCCC", "DNA 2": "TGGTGGCTACGACGGGATT"}, "B12": {"name": "ACUAAGU (DNA:RNA)", "RNA": "B1 RNA with C25A, A26C, G27U, U28A, G29A", "DNA 1": "CAATCTGAATTCCGGTCTCCC", "DNA 2": "TGGTGGCTACGACGGGATT"}, "B13": {"name": "UACUCAA (DNA:RNA)", "RNA": "B1 RNA with C25U, G27C, G29C, G30A, U31A", "DNA 1": "CAATCTGAATTCCGGTCTCCC", "DNA 2": "TGGTGGCTACGACGGGATT"}, "B14": {"name": "UGGUCCU (DNA:RNA)", "RNA": "B1 RNA with C25U, A26G, G29C, G30C", "DNA 1": "CAATCTGAATTCCGGTCTCCC", "DNA 2": "TGGTGGCTACGACGGGATT"}, "B15": {"name": "UCGUGGA (DNA:RNA)", "RNA": "B1 RNA with C25U, A26C, U31A", "DNA 1": "CAATCTGAATTCCGGTCTCCC", "DNA 2": "TGGTGGCTACGACGGGATT"}, "B16": {"name": "CGUUACG (DNA:RNA)", "RNA": "B1 RNA with A26G, G27U, G29A, G30C, U31G", "DNA 1": "CAATCTGAATTCCGGTCTCCC", "DNA 2": "TGGTGGCTACGACGGGATT"}, "B17": {"name": "CCGCGAG (DNA:RNA)", "RNA": "B1 RNA with A26C, U28C, G30A, U31G", "DNA 1": "CAATCTGAATTCCGGTCTCCC", "DNA 2": "TGGTGGCTACGACGGGATT"}, "B18": {"name": "CGGUAAG (DNA:RNA)", "RNA": "B1 RNA with A26G, G29A, G30A, U31G", "DNA 1": "CAATCTGAATTCCGGTCTCCC", "DNA 2": "TGGTGGCTACGACGGGATT"}, "B19": {"name": "CAAGUUG (DNA:RNA)", "RNA": "B1 RNA with G27A, U28G, G29U, G30U, U31G", "DNA 1": "CAATCTGAATTCCGGTCTCCC", "DNA 2": "TGGTGGCTACGACGGGATT"}, "B20": {"name": "AGUGGGG (DNA:RNA)", "RNA": "B1 RNA with C25A, A26G, G27U, U28G, U31G", "DNA 1": "CAATCTGAATTCCGGTCTCCC", "DNA 2": "TGGTGGCTACGACGGGATT"}, "B21": {"name": "UGAGCUG (DNA:RNA)", "RNA": "B8 RNA with G25U, U26G, A28G, A29C, C31G", "DNA 1": "CAATCTGAATTCCGGTCTCCC", "DNA 2": "TGGTGGCTACGACGGGATT"}, "B22": {"name": "GUGGGGG (DNA:RNA)", "RNA": "B1 RNA with C25G, A26U, U28G, U31G", "DNA 1": "CAATCTGAATTCCGGTCTCCC", "DNA 2": "TGGTGGCTACGACGGGATT"}, "B23": {"name": "CCAACGU (DNA:RNA)", "RNA": "B1 RNA with A26C, G27A, U28A, G29C", "DNA 1": "CAATCTGAATTCCGGTCTCCC", "DNA 2": "TGGTGGCTACGACGGGATT"}, "B24": {"name": "UGUCAUG (DNA:RNA)", "RNA": "B8 RNA with G25U, U26G, A27U, A28C, C31G", "DNA 1": "CAATCTGAATTCCGGTCTCCC", "DNA 2": "TGGTGGCTACGACGGGATT"}, "B25": {"name": "GCGCACG (DNA:RNA)", "RNA": "B8 RNA with U26C, A27G, A28C, U30C, C31G", "DNA 1": "CAATCTGAATTCCGGTCTCCC", "DNA 2": "TGGTGGCTACGACGGGATT"}, "B26": {"name": "AUAUGUU (DNA:RNA)", "RNA": "B1 RNA with C25A, A26U, G27A, G30U", "DNA 1": "CAATCTGAATTCCGGTCTCCC", "DNA 2": "TGGTGGCTACGACGGGATT"}, "B27": {"name": "GAGUGAU (DNA:RNA)", "RNA": "B1 RNA with C25G, G30A", "DNA 1": "CAATCTGAATTCCGGTCTCCC", "DNA 2": "TGGTGGCTACGACGGGATT"}, "B28": {"name": "GCAACCC (DNA:RNA)", "RNA": "B8 RNA with U26C, A29C, U30C", "DNA 1": "CAATCTGAATTCCGGTCTCCC", "DNA 2": "TGGTGGCTACGACGGGATT"}, "B29": {"name": "AACUAUC (DNA:RNA)", "RNA": "B8 RNA with G25A, U26A, A27C, A28U", "DNA 1": "CAATCTGAATTCCGGTCTCCC", "DNA 2": "TGGTGGCTACGACGGGATT"}, "B30": {"name": "AAAGUGC (DNA:RNA)", "RNA": "B1 RNA with C25A, G27A, U28G, G29U, U31C", "DNA 1": "CAATCTGAATTCCGGTCTCCC", "DNA 2": "TGGTGGCTACGACGGGATT"}, "B31": {"name": "GGAAAAA (DNA:RNA)", "RNA": "B8 RNA with U26G, U30A, C31A", "DNA 1": "CAATCTGAATTCCGGTCTCCC", "DNA 2": "TGGTGGCTACGACGGGATT"}},
  "note": "Changes are numbered by the printed parent chain; changes in the protein carry UniProt numbers. This is one part of the list.",
  "data": [
    {"biological_target": "T1, RBFOX1 RRM (Homo sapiens, UniProt Q9NWB1 109-208)", "T1 sequence": "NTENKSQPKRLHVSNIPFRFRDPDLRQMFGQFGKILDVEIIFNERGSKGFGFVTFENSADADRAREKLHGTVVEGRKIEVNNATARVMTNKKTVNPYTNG", "assay": "EMSA; HiTS-Eq, 1 nM pool, 10 min; buffer printed only for the single-RNA assays: 10 mM Tris pH 7.5, 150 mM NaCl, 3.4 mM EDTA, 0.001% NP-40, 30 C", "conditions": "tags: His6 N-terminal (pET28a); label: 5' 32P", "in_short": "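A pool of RNA with 7 randomized nucleotides, 5′-radiolabelled and with DNA-annealed flanks, was equilibrated at 1 nM for 10 min in 50 µL with purified RbFox RRM, wild type or mutant, across increasing protein concentrations. Free RNA was separated by 8% native PAGE, excised, reverse-transcribed, barcoded by PCR and sequenced. Relative association constants were obtained from read-count changes of each RNA species versus the control reaction and normalised to the cognate motif.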", "values": [
      {"binder": "B1", "binding signal": "0.0116 KA relative to UGCAUGU"},
      {"binder": "B2", "binding signal": "0.0134 KA relative to UGCAUGU"},
      {"binder": "B3", "binding signal": "0.0144 KA relative to UGCAUGU"},
      {"binder": "B4", "binding signal": "0.0102 KA relative to UGCAUGU"},
      {"binder": "B5", "binding signal": "0.0216 KA relative to UGCAUGU"},
      {"binder": "B6", "binding signal": "0.000478 KA relative to UGCAUGU"},
      {"binder": "B7", "binding signal": "0.000179 KA relative to UGCAUGU"},
      {"binder": "B8", "binding signal": "0.00281 KA relative to UGCAUGU"},
      {"binder": "B9", "binding signal": "0.0109 KA relative to UGCAUGU"},
      {"binder": "B10", "binding signal": "0.0122 KA relative to UGCAUGU"},
      {"binder": "B11", "binding signal": "0.00856 KA relative to UGCAUGU"},
      {"binder": "B12", "binding signal": "0.00633 KA relative to UGCAUGU"},
      {"binder": "B13", "binding signal": "0.00418 KA relative to UGCAUGU"},
      {"binder": "B14", "binding signal": "0.0168 KA relative to UGCAUGU"},
      {"binder": "B15", "binding signal": "0.011 KA relative to UGCAUGU"},
      {"binder": "B16", "binding signal": "0.00958 KA relative to UGCAUGU"},
      {"binder": "B17", "binding signal": "0.0111 KA relative to UGCAUGU"},
      {"binder": "B18", "binding signal": "0.0104 KA relative to UGCAUGU"},
      {"binder": "B19", "binding signal": "0.00968 KA relative to UGCAUGU"},
      {"binder": "B20", "binding signal": "0.0118 KA relative to UGCAUGU"},
      {"binder": "B21", "binding signal": "0.0243 KA relative to UGCAUGU"},
      {"binder": "B22", "binding signal": "0.0166 KA relative to UGCAUGU"},
      {"binder": "B23", "binding signal": "0.000496 KA relative to UGCAUGU"},
      {"binder": "B24", "binding signal": "0.0247 KA relative to UGCAUGU"},
      {"binder": "B25", "binding signal": "0.062 KA relative to UGCAUGU"},
      {"binder": "B26", "binding signal": "0.00257 KA relative to UGCAUGU"},
      {"binder": "B27", "binding signal": "0.0102 KA relative to UGCAUGU"},
      {"binder": "B28", "binding signal": "0.0088 KA relative to UGCAUGU"},
      {"binder": "B29", "binding signal": "0.0015 KA relative to UGCAUGU"},
      {"binder": "B30", "binding signal": "0.0115 KA relative to UGCAUGU"},
      {"binder": "B31", "binding signal": "0.00573 KA relative to UGCAUGU"}
    ]}
  ]
}
